Source: PubChem BioAssay AID1468 (National Center for Advancing Translational Sciences (NCATS), 2008)
Hit rate of the full screen: of about 280,000 compounds, about 1,100 (0.39%) were called active. The shares of active, inactive and inconclusive entries below differ from those in the screen. The call rests on the fitted dose curve; in most records, active means well fitted inhibition curve with a large enough effect; inconclusive means small, poorly fitted or top-dose-only effect, or effect the other way; inactive means flat fitted curve, though single readings scatter. A potency beside an inconclusive call is a rough fit, not a confirmed value.

These molecules were tested against Microtubule-associated protein tau (Homo sapiens) (UniProt P10636) (assay: qHTS for Inhibitors of Tau Fibril Formation, Fluorescence Polarization). Details: K18 P301L tau heparin fibrillization, Alexa594 FP, 6 h; series mostly up to 57.7 µM; activity, negative = inhibition: at the top concentration.
Sequence of UniProt P10636 (P10636 whole entry, looked up): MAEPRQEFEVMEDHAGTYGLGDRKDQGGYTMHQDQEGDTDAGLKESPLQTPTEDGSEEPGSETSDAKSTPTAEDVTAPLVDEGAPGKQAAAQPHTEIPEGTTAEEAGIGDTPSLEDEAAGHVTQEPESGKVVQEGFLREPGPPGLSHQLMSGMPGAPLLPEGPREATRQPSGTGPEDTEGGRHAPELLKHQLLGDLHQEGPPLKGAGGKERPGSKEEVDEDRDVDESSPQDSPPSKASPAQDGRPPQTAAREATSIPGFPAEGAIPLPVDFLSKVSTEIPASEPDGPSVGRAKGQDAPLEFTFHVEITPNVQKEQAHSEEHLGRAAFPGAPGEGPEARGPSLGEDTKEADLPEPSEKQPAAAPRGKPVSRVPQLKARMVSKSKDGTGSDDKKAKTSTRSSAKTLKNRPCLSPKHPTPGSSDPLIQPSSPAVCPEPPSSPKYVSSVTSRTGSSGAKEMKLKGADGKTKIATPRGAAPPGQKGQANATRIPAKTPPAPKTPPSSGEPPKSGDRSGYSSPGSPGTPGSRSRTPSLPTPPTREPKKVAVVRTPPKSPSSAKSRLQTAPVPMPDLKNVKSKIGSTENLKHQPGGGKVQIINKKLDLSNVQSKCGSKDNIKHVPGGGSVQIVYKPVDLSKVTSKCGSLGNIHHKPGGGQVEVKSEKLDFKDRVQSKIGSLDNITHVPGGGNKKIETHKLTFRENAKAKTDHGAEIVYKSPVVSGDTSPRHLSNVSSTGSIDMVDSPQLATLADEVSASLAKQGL
Procedure, shortened: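 Read-out: fluorescence polarization of Alexa 594-labeled tau (0.24 uM), 555 nm excitation, 632 nm emission. Mixtures held 15 uM unlabeled K18 P301L, compound and 20 uM heparin, pH 7 acetate buffer, incubated 6 hr at 37 C.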
Further: nearly all actives have a fitted effect of over 55% in size.
On the % scale 0 is the no-effect control and ±100 the full control effect; potency means the concentration at half of the fitted maximal effect; tags describe the fitted curve by direction and shape.

Potency, active:
CC1(C)N([O-])c2cc([N+](=O)[O-])ccc2[N+]1=O 8.91 µM
CCN1CCN(Cc2ccc(NC(=O)c3cc(NC(=O)C(=O)c4c[nH]c5ccccc45)cc(OC)c3)cc2C(F)(F)F)CC1 14.1 µM

Potency, inconclusive:
CSc1ccc(NC(=O)Nc2ccc(C(=O)NCC(=O)O)cc2)cc1 2.24 µM [activator, partial curve]
CCNc1nc(Oc2ccc(OCC(=O)OC)nn2)nc(N2CCOCC2)n1 8.91 µM [inhibitor, single point]
COc1ccc(NC2=C(c3ccc(OC)cc3)C(=O)c3ccccc32)cc1 7.08 µM [activator, full curve, poor fit]
O=C1CN(C(=O)COc2ccc(Cl)cc2Cl)C(c2ccc(F)cc2)c2cc(F)ccc2N1 (stereo unspecified) 17.8 µM [inhibitor, single point]
COc1cccc2sc(Nc3nnc(-c4ccccc4Cl)o3)nc12 7.94 µM [activator, full curve]
CC(Sc1ccc(Cl)cc1)C(=O)Nc1ccc(S(=O)(=O)N2CCOCC2)cc1 (stereo unspecified) 39.8 µM [inhibitor, single point]
COc1ccc(-c2cc(-c3ccccc3)nc(SCC(=O)Nc3nccs3)c2C#N)cc1 28.2 µM [inhibitor, partial curve]
CN1C(=O)/C(=C/c2cc(N=Nc3ccccc3)ccc2O)SC1=S 28.2 µM [inhibitor, partial curve]
CC(=O)Oc1cc(OC(C)=O)c2c(=O)cc(-c3ccc(OC(C)=O)c(OC(C)=O)c3)oc2c1 39.8 µM [inhibitor, single point]
O=C(COc1ccc(F)cc1)Nc1cccc(OCc2cc(=O)n3ccccc3n2)c1 10 µM [inhibitor, partial curve]
Cc1nnc(SCc2nc3sc4c(c3c(=O)[nH]2)CCCC4)n(N)c1=O 8.91 µM [inhibitor, single point]
O=C(N/N=C/c1cn(-c2ccccc2)nc1-c1cccs1)c1ccc(Cl)cc1 25.1 µM [inhibitor, partial curve]
C=CCNC(=S)/C(=C(/[O-])c1ccc([N+](=O)[O-])cc1)[n+]1ccccc1 22.4 µM [inhibitor, single point]
COC(=O)CC1=C(C(=O)OC)C(c2ccc3c(c2Cl)OCO3)C(C#N)=C(N)O1 (stereo unspecified) 8.91 µM [inhibitor, partial curve, poor fit]
N#CC1=C(S)N(c2ccccc2)C(c2ccc(-c3ccccc3Cl)o2)NC1=O (stereo unspecified) 35.5 µM [inhibitor, single point]
Fc1ccc(-n2ncc3c(Nc4ccc(Oc5ccccc5)cc4)ncnc32)cc1 15.8 µM [inhibitor, partial curve, poor fit]
COc1ccc(NC(=O)CCc2c(C)nc3c(-c4ccccc4)c(C)nn3c2C)cc1Cl 3.55 µM [inhibitor, full curve, poor fit]
Oc1ccc(N=Cc2c(O)ccc3ccccc23)cc1 20 µM [inhibitor, partial curve]
Cn1c(SCC(=O)Nc2ccc(F)cc2)nc2c([nH]c3ccccc32)c1=O 17.8 µM [inhibitor, single point]
O=C(N=Nc1ccc(NOC(=O)c2ccccc2Br)cc1)c1ccccc1O 35.5 µM [inhibitor, single point]
O=C1Nc2ccc(F)cc2C12Nc1ccccc1-c1nnc(SCc3ccccc3Cl)nc1O2 (stereo unspecified) 35.5 µM [inhibitor, single point]
NC(=O)c1c(N)sc2c1CCC2 39.8 µM [inhibitor, single point]
Cc1cccn2c(=O)c3cc(C(=O)NCCc4ccc(S(N)(=O)=O)cc4)n(C)c3nc12 10 µM [inhibitor, single point]
O=C(Nc1cccc(F)c1)C1CC(=O)N(c2ccc(Br)cc2)C1 (stereo unspecified) 39.8 µM [inhibitor, single point]
O=C(NC1CCCC1)C(c1ccc(F)cc1)N(Cc1ccc(Cl)cc1)C(=O)CCl (stereo unspecified) 44.7 µM [inhibitor, single point]
Cc1nonc1C1CCCN1Cc1cn[nH]c1-c1ccc2c(c1)OCO2 (stereo unspecified) 28.2 µM [inhibitor, partial curve, poor fit]
O=C(c1ccco1)[C@@H]1[C@@H]2C(=O)N(c3ccccc3)C(=O)[C@@H]2C2c3ccccc3C=CN21 (stereo partly specified) 25.1 µM [inhibitor, partial curve]
CCCCCc1c(C)nc(Nc2nc(C)c3cc(OC)ccc3n2)[nH]c1=O 8.91 µM [inhibitor, partial curve]
CCCCNC(=O)CCn1c(=O)c2ccccc2n(Cc2cc(C)ccc2C)c1=O 0.794 µM [inhibitor, single point]
COc1ccc(-c2csc(NC(=S)NC(=O)/C=C/c3ccccc3)n2)cc1Br 3.98 µM [inhibitor, partial curve]
Cc1cc(C)c2c(=O)n(CC(=O)Nc3ccc(Br)c(C)c3)sc2n1 25.1 µM [inhibitor, partial curve]
CCc1cccc2c(C(=O)COC(=O)c3ccc(O)cc3)c[nH]c12 25.1 µM [inhibitor, partial curve]
O=C(Nc1nc(-c2ccccc2)cs1)C1c2ccccc2Oc2ccccc21 1.26 µM [inhibitor, partial curve]
CC(C[N+](C)(C)C)OC(N)=O (stereo unspecified) 1.58 µM [inhibitor, full curve, poor fit]
Cc1ccc2cc(CN(Cc3ccco3)C(=O)c3ccccc3)c(=O)[nH]c2c1C 2.51 µM [inhibitor, single point]
CSc1cccc(NC(=O)CCCOc2ccc(Cl)cc2C)c1 17.8 µM [inhibitor, partial curve]
COc1ccc(-n2c(C)cc(C(=O)CN3C(=O)c4ccccc4C3=O)c2C)cc1 39.8 µM [inhibitor, single point]
COc1ccccc1CN1C[C@@H]2C[C@@H](c3cccc(C)n3)N3CCC[C@@]23C1=O 44.7 µM [activator, single point]
Cc1cc(N)n2nc(C)c(-c3ccc(Cl)cc3)c2n1 15.8 µM [activator, partial curve]
O=C(Nc1ccc(F)cc1F)c1ccc2c(c1)CCN2S(=O)(=O)c1ccc(Cl)cc1 2.24 µM [inhibitor, partial curve]
CCOC(=O)c1sc(NC(=O)c2ccc(S(=O)(=O)N3CCCCC3)cc2)nc1-c1ccccc1 15.8 µM [inhibitor, partial curve]
O=c1[nH]cnc2c1c(-c1ccccc1)cn2-c1ccc(Br)cc1 17.8 µM [inhibitor, partial curve]
CC(=O)c1c(C)[nH]c(C(=O)CSc2nnc(-c3ccco3)o2)c1C 25.1 µM [inhibitor, partial curve, poor fit]
CC(=O)c1cc(NC(=O)c2ccccc2)c(=O)oc1C 20 µM [inhibitor, partial curve]
CC1=NN(c2ccccc2)C(=O)/C1=C\c1cc(C)n(C)c1C 25.1 µM [activator, single point]
COc1cc(NC(=O)COC(=O)/C=C/c2ccc(Cl)cc2Cl)cc(OC)c1 5.01 µM [inhibitor, single point]

activity, negative = inhibition, inactive:
Cc1ccc2c(c1)c1c(c(=O)n(-c3cccc(Cl)c3)c(=O)n1C)n2C 0.404%
CN(C)CCN1CCc2ccccc21 -10.2%
COc1cccc([C@@H]2Oc3ccc(OC)cc3C[C@H]2OC(=O)N[C@H](C)C2CCCCC2)c1 0.227%
FC(F)(F)c1ccc(C2=Nc3ccccc3NC(c3cccs3)=N2)cc1 -13.7%
Nc1c(Cl)cc2c(c1Oc1ccccc1)C(=O)c1ccccc1C2=O 6.7%
O=C(NC(=S)Nc1nc2ccccc2s1)c1ccco1 -2.66%
CCC(C)NC(=O)C1CCN(C(=O)c2cc3sccc3n2Cc2ccc(Cl)cc2)CC1 (stereo unspecified) -10.2%
CNc1c(N)c(=O)oc2ccccc12 -4.77%
CCN(CC)CCNC(=O)c1cn(-c2ccccc2)nc1-c1cccs1 -15.4%
O=C(c1ccc(CSc2nc3ccncc3n2Cc2ccccc2F)cc1)N1CCCCCC1 3.61%
COc1ccc2[nH]c3c(=S)nc[nH]c3c2c1 -5.07%
CCc1nc2sc3c(c2c(=O)n1N)CC(C)(C)OC3 6.96%
COC(=O)C/C=C\[C@@H](C)[C@@H](/C=N\OC[C@@H](C)[C@H](OCc1ccccc1)C(C)C)NS(=O)(=O)c1ccc(C)cc1 -3.64% [at 11.6 µM]
CC(C)c1nc2oc3c(NCC4CCCO4)ncnc3c2c2c1CCC2 (stereo unspecified) 9.46%
COc1cccc(CNC(=O)C2CCN(Cc3cc4ccccc4n3Cc3ccc(C)cc3)CC2)c1 -6.73%
COc1cccc(NC(=O)CCNC(=O)c2ccccc2Cl)c1 1.83%
O=C1C=C(NCCO)C(=O)c2cnccc21 -10.1%
O=C(COc1ccc2ccccc2c1)N1CCN(C(=O)c2ccco2)CC1 -14.9%
